{"source": "the supplement of paper PMC11417369", "note": "This is one part of the list.", "data": [{"system": "PfAP2-HC AP2 domain (GST-tagged)", "assay": "gcPBM binding intensity (ln(normalized median fluorescence intensity)); higher = stronger DNA binding", "outline": "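After 1 h on an Agilent 4 × 180k array of primer-extended double-stranded 36-bp intergenic genomic probes and negative controls, bound GST-tagged P. falciparum DNA-binding domains were detected with Alexa488 anti-GST antibody and scanned at 488 nm. The domains had been expressed in E. coli, and binding took place in 1× PBS with 1% milk, 0.2 mg/ml BSA, 0.5% salmon testes DNA and 0.03% Triton X-100. Binding intensity is the highest Masliner-normalised natural-log median intensity across replicate spots of either probe orientation.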", "values": [{"sequence": "CTTTCATATGTTTTAACACACACGCATATATTATAT [CACACA_site8615]", "gcPBM binding intensity (ln)": 10.2}, {"sequence": "TTTTTTTTTTTGATTTGTACACAAAAAAAATATATG [XGTACX_site4547]", "gcPBM binding intensity (ln)": 9.42}, {"sequence": "CTTCTTATTTTCTAATGTACGTACAAATCATTTATA [XGTACX_site2176]", "gcPBM binding intensity (ln)": 9.74}, {"sequence": "ATATTTATATATATGTGTACATATAGAAACATAAAA [XGTACX_site4355]", "gcPBM binding intensity (ln)": 9.81}, {"sequence": "TAAACATACATATACACACACACACCCACACCCACA [CACACA_site492]", "gcPBM binding intensity (ln)": 11.6}, {"sequence": "AAAAACAAACTGTGCATGCACCAAAAAAAAAAAAAA", "gcPBM binding intensity (ln)": 9.62}, {"sequence": "TGTCCTTATGGGCACACACACATATAAGAAATTTAA [CACACA_site3187]", "gcPBM binding intensity (ln)": 10}, {"sequence": "TTTTTTTTTTTAATTTGTACGAATCTTTTTATTTTA [XGTACX_site4516]", "gcPBM binding intensity (ln)": 9.73}, {"sequence": "ACCCTCATATTATAGACACACACAAAAAAAATAAAA [CACACA_site7941]", "gcPBM binding intensity (ln)": 10.1}, {"sequence": "AGAAATGAAATATACACACATACATATATACATATA [CACACA_site4033]", "gcPBM binding intensity (ln)": 10.3}, {"sequence": "TAAATACACCCTAGACGTACATAAAAATTTAGTATG [XGTACX_site2512]", "gcPBM binding intensity (ln)": 9.78}, {"sequence": "ATTAATAATGAGTTATGTACATACATATTTTAAGAT [XGTACX_site7543]", "gcPBM binding intensity (ln)": 9.72}, {"sequence": "TATCGAGCACGGCGTGTGGAGTTACAAAGAGGAGAA [CACACA_negctrl_site40]", "gcPBM binding intensity (ln)": 10.1}, {"sequence": "GCCAATAAAGATGTGGTGCATTATATATATATATAT", "gcPBM binding intensity (ln)": 9.64}, {"sequence": "AAATGTATAATATTTTCACACACAAGAAAAAAGAAA [CACACA_site9195]", "gcPBM binding intensity (ln)": 10}, {"sequence": "ATTTTTTTATAAAATTTTTATATATTATATAAATAT [GTGCAC_negctrl_site163]", "gcPBM binding intensity (ln)": 9.47}, {"sequence": "TAAAAATAGTATACAACACACGAGGGAAAATAAAGT [CACACA_site3837]", "gcPBM binding intensity (ln)": 10.3}, {"sequence": "AGAATATTTAATTCAACACACATACATATTTATTAA [CACACA_site5318]", "gcPBM binding intensity (ln)": 9.81}, {"sequence": "TATTGTATATACTATACACACACATACATACATACA [CACACA_site8172]", "gcPBM binding intensity (ln)": 10.3}, {"sequence": "ATATATTTATATAAATGTACATACAGCACATTTATA [XGTACX_site4725]", "gcPBM binding intensity (ln)": 9.51}, {"sequence": "CAAATATACATATGTAGTACATGTTGTAGATAATTT [XGTACX_site2790]", "gcPBM binding intensity (ln)": 9.88}, {"sequence": "GGATAATATATTAGAACACACATATAGATGTAAAAA [CACACA_site6229]", "gcPBM binding intensity (ln)": 9.96}, {"sequence": "GAAGCCCTATGAAAAGTGCGGTTCATGAACAAAGAA [GTGCAC_site9828]", "gcPBM binding intensity (ln)": 9.86}, {"sequence": "TACTTTATATAAAGATCAAAAAATAAATAATTATAA [TGCATGCA_negctrl_site446]", "gcPBM binding intensity (ln)": 9.33}, {"sequence": "TTATATTATACATACACACCCATATAATATGTTTTT [CACACA_site4636]", "gcPBM binding intensity (ln)": 9.88}, {"sequence": "TCTTATGAATATCCCCGTACACATATATTTCTTATA [XGTACX_site6877]", "gcPBM binding intensity (ln)": 9.82}, {"sequence": "TTGTTTTTGTTCTTGGGTACTTAAATTATAAATGAT [XGTACX_site113]", "gcPBM binding intensity (ln)": 9.64}, {"sequence": "AGCTACACACCACAATGTACATAAATATATATGTGA [XGTACX_site1483]", "gcPBM binding intensity (ln)": 9.73}, {"sequence": "TATTTGTAAATCGATACACACATATAGATTAATATA [CACACA_site6237]", "gcPBM binding intensity (ln)": 9.7}, {"sequence": "TTTGAATCCTTATATACACACATTATAAAATATTAT [CACACA_site6406]", "gcPBM binding intensity (ln)": 9.7}, {"sequence": "TAAAATGCAATCTGAACACACATATTTTTTTAATAT [CACACA_site6922]", "gcPBM binding intensity (ln)": 9.73}, {"sequence": "TACATCATACGAACAGTGCATATTATTATTGTTCTG", "gcPBM binding intensity (ln)": 9.67}, {"sequence": "ATGGATTATACGTGCACACATATATACAAATAAATA [CACACA_site640]", "gcPBM binding intensity (ln)": 9.81}, {"sequence": "ACCATTTGTAGGTAAACACACATTATTATTAATATC [CACACA_site2635]", "gcPBM binding intensity (ln)": 9.8}, {"sequence": "ATTTTATATCTGGATAGTACTTTAATATTTCAAATG [XGTACX_site7304]", "gcPBM binding intensity (ln)": 9.51}, {"sequence": "GTATTTATAAATTATAGTACTTTGCGTATCATATAT [XGTACX_site7358]", "gcPBM binding intensity (ln)": 9.64}, {"sequence": "GGATATTCATTAACCACACACACAAAAAAAATAAAA [CACACA_site3800]", "gcPBM binding intensity (ln)": 11.2}, {"sequence": "TATATATCATATGATACATGCAACAAAATGCATAAT [TGCATGCA_site205]", "gcPBM binding intensity (ln)": 9.61}, {"sequence": "TACTTACCAAAATACACACACACACTAGATATATAA [CACACA_site5096]", "gcPBM binding intensity (ln)": 11.3}, {"sequence": "ATGTATATTACTCATTGTACTTATATTTTCTTATTA [XGTACX_site8897]", "gcPBM binding intensity (ln)": 9.84}, {"sequence": "TCATAGTATAGACACACACACACACGCATATAAATA [CACACA_site6915]", "gcPBM binding intensity (ln)": 10.5}, {"sequence": "TCTTTGTAAATTTCTTGTACGTAAATTTTTTTTAGG [XGTACX_site7062]", "gcPBM binding intensity (ln)": 9.52}, {"sequence": "TATTTTACATCTTCTCACATTTTATCACTTTTTAAA [CACACA_negctrl_site330]", "gcPBM binding intensity (ln)": 9.76}, {"sequence": "TGTATATATAAACATGCACACGTGGTTGTATATATA [CACACA_site9078]", "gcPBM binding intensity (ln)": 9.68}, {"sequence": "AGAATTCGTTTAAAAAGTACATTCAATTTAATAATG [XGTACX_site6603]", "gcPBM binding intensity (ln)": 9.39}]}]}
